First the molecules themselves.
T1: RBFOX1 RRM RbFoxmut (Fox-RRM*) (Homo sapiens, UniProt Q9NWB1 109-208, R118D;E147R;N151S;E152T)
T1 sequence: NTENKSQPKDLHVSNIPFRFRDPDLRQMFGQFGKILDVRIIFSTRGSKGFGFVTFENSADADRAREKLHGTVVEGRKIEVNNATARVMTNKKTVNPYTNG

B1: UAUCGCG (DNA:RNA)
RNA: GGGAGACCGGAAUUCAGAUUGUCCUAUCGCGUUAAAUCCCGUCGUAGCCACCA
DNA 1: CAATCTGAATTCCGGTCTCCC
DNA 2: TGGTGGCTACGACGGGATT
B2: AAGCCGC (DNA:RNA)
RNA: B1 RNA with U25A, U27G, G29C, C30G, G31C
DNA 1: CAATCTGAATTCCGGTCTCCC
DNA 2: TGGTGGCTACGACGGGATT
B3: AGGUACU (DNA:RNA)
RNA: B1 RNA with U25A, A26G, U27G, C28U, G29A, G31U
DNA 1: CAATCTGAATTCCGGTCTCCC
DNA 2: TGGTGGCTACGACGGGATT
B4: AUAAUCG (DNA:RNA)
RNA: B1 RNA with U25A, A26U, U27A, C28A, G29U
DNA 1: CAATCTGAATTCCGGTCTCCC
DNA 2: TGGTGGCTACGACGGGATT
B5: CAUUAAG (DNA:RNA)
RNA: B1 RNA with U25C, C28U, G29A, C30A
DNA 1: CAATCTGAATTCCGGTCTCCC
DNA 2: TGGTGGCTACGACGGGATT
B6: CACAAGG (DNA:RNA)
RNA: B1 RNA with U25C, U27C, C28A, G29A, C30G
DNA 1: CAATCTGAATTCCGGTCTCCC
DNA 2: TGGTGGCTACGACGGGATT
B7: CUUCUAC (DNA:RNA)
RNA: B1 RNA with U25C, A26U, G29U, C30A, G31C
DNA 1: CAATCTGAATTCCGGTCTCCC
DNA 2: TGGTGGCTACGACGGGATT
B8: UCUUGCC (DNA:RNA)
RNA: B1 RNA with A26C, C28U, G31C
DNA 1: CAATCTGAATTCCGGTCTCCC
DNA 2: TGGTGGCTACGACGGGATT
B9: AAAUAAG (DNA:RNA)
RNA: B1 RNA with U25A, U27A, C28U, G29A, C30A
DNA 1: CAATCTGAATTCCGGTCTCCC
DNA 2: TGGTGGCTACGACGGGATT
B10: GUCUCUC (DNA:RNA)
RNA: GGGAGACCGGAAUUCAGAUUGUCCGUCUCUCUUAAAUCCCGUCGUAGCCACCA
DNA 1: CAATCTGAATTCCGGTCTCCC
DNA 2: TGGTGGCTACGACGGGATT
B11: ACAGUCU (DNA:RNA)
RNA: B1 RNA with U25A, A26C, U27A, C28G, G29U, G31U
DNA 1: CAATCTGAATTCCGGTCTCCC
DNA 2: TGGTGGCTACGACGGGATT
B12: AGUGUUA (DNA:RNA)
RNA: B10 RNA with G25A, U26G, C27U, U28G, C29U, C31A
DNA 1: CAATCTGAATTCCGGTCTCCC
DNA 2: TGGTGGCTACGACGGGATT
B13: UGCGACG (DNA:RNA)
RNA: B1 RNA with A26G, U27C, C28G, G29A
DNA 1: CAATCTGAATTCCGGTCTCCC
DNA 2: TGGTGGCTACGACGGGATT
B14: GGAGGAA (DNA:RNA)
RNA: B10 RNA with U26G, C27A, U28G, C29G, U30A, C31A
DNA 1: CAATCTGAATTCCGGTCTCCC
DNA 2: TGGTGGCTACGACGGGATT
B15: UAUCUAU (DNA:RNA)
RNA: B1 RNA with G29U, C30A, G31U
DNA 1: CAATCTGAATTCCGGTCTCCC
DNA 2: TGGTGGCTACGACGGGATT
B16: GAUCUCG (DNA:RNA)
RNA: B1 RNA with U25G, G29U
DNA 1: CAATCTGAATTCCGGTCTCCC
DNA 2: TGGTGGCTACGACGGGATT
B17: GUUUUAU (DNA:RNA)
RNA: B10 RNA with C27U, C29U, U30A, C31U
DNA 1: CAATCTGAATTCCGGTCTCCC
DNA 2: TGGTGGCTACGACGGGATT
B18: GAGUCAA (DNA:RNA)
RNA: B10 RNA with U26A, C27G, U30A, C31A
DNA 1: CAATCTGAATTCCGGTCTCCC
DNA 2: TGGTGGCTACGACGGGATT
B19: GACUGUG (DNA:RNA)
RNA: B10 RNA with U26A, C29G, C31G
DNA 1: CAATCTGAATTCCGGTCTCCC
DNA 2: TGGTGGCTACGACGGGATT
B20: CUAAAGC (DNA:RNA)
RNA: B10 RNA with G25C, C27A, U28A, C29A, U30G
DNA 1: CAATCTGAATTCCGGTCTCCC
DNA 2: TGGTGGCTACGACGGGATT
B21: GCUACGG (DNA:RNA)
RNA: B10 RNA with U26C, C27U, U28A, U30G, C31G
DNA 1: CAATCTGAATTCCGGTCTCCC
DNA 2: TGGTGGCTACGACGGGATT
B22: UCCGAGC (DNA:RNA)
RNA: B10 RNA with G25U, U26C, U28G, C29A, U30G
DNA 1: CAATCTGAATTCCGGTCTCCC
DNA 2: TGGTGGCTACGACGGGATT
B23: CCGCCUC (DNA:RNA)
RNA: B10 RNA with G25C, U26C, C27G, U28C
DNA 1: CAATCTGAATTCCGGTCTCCC
DNA 2: TGGTGGCTACGACGGGATT
B24: AACGCGG (DNA:RNA)
RNA: B10 RNA with G25A, U26A, U28G, U30G, C31G
DNA 1: CAATCTGAATTCCGGTCTCCC
DNA 2: TGGTGGCTACGACGGGATT
B25: CCUCGAA (DNA:RNA)
RNA: B1 RNA with U25C, A26C, C30A, G31A
DNA 1: CAATCTGAATTCCGGTCTCCC
DNA 2: TGGTGGCTACGACGGGATT
B26: CGGUACU (DNA:RNA)
RNA: B10 RNA with G25C, U26G, C27G, C29A, U30C, C31U
DNA 1: CAATCTGAATTCCGGTCTCCC
DNA 2: TGGTGGCTACGACGGGATT
B27: UAUGAGU (DNA:RNA)
RNA: B1 RNA with C28G, G29A, C30G, G31U
DNA 1: CAATCTGAATTCCGGTCTCCC
DNA 2: TGGTGGCTACGACGGGATT
B28: ACGUCAA (DNA:RNA)
RNA: B10 RNA with G25A, U26C, C27G, U30A, C31A
DNA 1: CAATCTGAATTCCGGTCTCCC
DNA 2: TGGTGGCTACGACGGGATT
B29: AUGUUAU (DNA:RNA)
RNA: B10 RNA with G25A, C27G, C29U, U30A, C31U
DNA 1: CAATCTGAATTCCGGTCTCCC
DNA 2: TGGTGGCTACGACGGGATT
B30: ACAUACU (DNA:RNA)
RNA: B10 RNA with G25A, U26C, C27A, C29A, U30C, C31U
DNA 1: CAATCTGAATTCCGGTCTCCC
DNA 2: TGGTGGCTACGACGGGATT
B31: UGCCCUU (DNA:RNA)
RNA: B10 RNA with G25U, U26G, U28C, C31U
DNA 1: CAATCTGAATTCCGGTCTCCC
DNA 2: TGGTGGCTACGACGGGATT

Substitutions are numbered along the chain they refer to; changes in the protein carry UniProt numbers. This is one part of the list.

The target in the assay is T1, RBFOX1 RRM RbFoxmut (Fox-RRM*). Description: EMSA; HiTS-Eq, 1 nM pool, 10 min; buffer printed only for the single-RNA assays: 10 mM Tris pH 7.5, 150 mM NaCl, 3.4 mM EDTA, 0.001% NP-40, 30 C. As to conditions: tags: His6 N-terminal (pET28a); label: 5' 32P. The method, boiled down:
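Purified RbFox RRM (wild type or mutant) was equilibrated for 10 min in 50 µL with 1 nM of a 5′-radiolabelled pool of RNA with 7 randomized nucleotides, its flanks annealed to DNA oligonucleotides, across increasing protein concentrations. Free RNA was separated by 8% native PAGE, excised, reverse-transcribed, PCR-barcoded and sequenced on an Illumina HiSeq 2500. Relative association constants came from read-count changes of each variant against the control reaction, normalised to the cognate motif.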
On to B1, for which the binding signal was 0.089 KA relative to UGCAUGU.

As for B2, the binding signal is 0.097 KA relative to UGCAUGU.

For B3, the binding signal is 0.0852 KA relative to UGCAUGU.

B4: the binding signal is 0.0874 KA relative to UGCAUGU.

Take B5: the binding signal was 0.138 KA relative to UGCAUGU.

As to B6, the binding signal was 0.0768 KA relative to UGCAUGU.

For the molecule B7, the binding signal is 0.0842 KA relative to UGCAUGU.

For the molecule B8, the binding signal is 0.318 KA relative to UGCAUGU.

In the case of B9, the binding signal is 0.115 KA relative to UGCAUGU.

For the molecule B10, the binding signal was 0.0543 KA relative to UGCAUGU.

As to B11, the binding signal was 0.0639 KA relative to UGCAUGU.

Consider B12, for which the binding signal was 0.149 KA relative to UGCAUGU.

On to B13, for which the binding signal is 0.136 KA relative to UGCAUGU.

Consider B14, for which the binding signal is 0.093 KA relative to UGCAUGU.

B15: the binding signal is 0.101 KA relative to UGCAUGU.

As for B16, the binding signal was 0.102 KA relative to UGCAUGU.

As to B17, the binding signal is 0.114 KA relative to UGCAUGU.

With B18, the binding signal was 0.104 KA relative to UGCAUGU.

For the molecule B19, the binding signal was 0.21 KA relative to UGCAUGU.

As to B20, the binding signal was 0.0592 KA relative to UGCAUGU.

B21: the binding signal was 0.0964 KA relative to UGCAUGU.

On to B22, for which the binding signal is 0.111 KA relative to UGCAUGU.

B23: the binding signal is 0.0617 KA relative to UGCAUGU.

For B24, the binding signal is 0.0791 KA relative to UGCAUGU.

B25: the binding signal is 0.091 KA relative to UGCAUGU.

On to B26, for which the binding signal was 0.0851 KA relative to UGCAUGU.

Consider B27, for which the binding signal was 0.133 KA relative to UGCAUGU.

In the case of B28, the binding signal was 0.0727 KA relative to UGCAUGU.

As to B29, the binding signal was 0.167 KA relative to UGCAUGU.

Turning to B30, the binding signal was 0.0924 KA relative to UGCAUGU.

Regarding B31, the binding signal was 0.0887 KA relative to UGCAUGU.

Values taken from paper PMC9911399, “Two distinct binding modes provide the RNA-binding protein RbFox with extraordinary sequence specificity”.
